The results in this text go back to ChEMBL document CHEMBL1201862, “PubChem BioAssay data set” (2004).

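Tested at 5 concentrations; 48 h exposure; 96-well plates; endpoints linearly interpolated, else capped at highest concentration. GI50 is the concentration that inhibits growth by half.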 Calls of active or inactive are those of the source. Cut-off read from the data, not from the text of the source: active = GI50 up to about 1.1 µM and inactive = higher.

In this test the test system is NCI-H322M. The experiment in a line: growth of human tumour cells (NCI), 48 h.
Turning to `CCCCOc1ccc(NC(=N)Nc2ccc(Cl)cc2)cc1`, the GI50 was inactive: 4.22 µM.

As to `COc1ccc(N2N=NN(C(C)C)/C2=C(/Cl)c2nnnn2-c2ccc(OC)cc2)cc1`, the GI50 was inactive: 16.4 µM.

As to `CCCOC(=O)C1C(c2ccc(OC)cc2)NC(c2ccc(OC)cc2)C(C(=O)OCCC)S1(=O)=O` (centres undefined), the GI50 was inactive: > 10 µM.

In the case of `C(=C\c1cc(CCc2nc3ccccc3[nH]2)n[nH]1)/c1ccccc1`, the GI50 is inactive: > 100 µM.

For the compound `CC1(C)CCCCCCCCCC2CC2CCC(C)(C)C1=O` (centres undefined), the GI50 was inactive: 21.3 µM.

Consider `O=C1/C(=C/c2ccc([N+](=O)[O-])cc2)C(=O)N(c2ccccc2)C1c1ccccc1` (centres undefined), for which the GI50 was inactive: > 10 µM.

As to `O=C1/C(=C\c2ccccc2)c2ccccc2N1Cc1ccccc1`, the GI50 is inactive: 9.82 µM.

On to `[N-]=[N+]=NC[C@H]1OCO[C@H](CN=[N+]=[N-])[C@H]2OCCOCCOc3ccccc3OCCOCCO[C@@H]21`, for which the GI50 was inactive: > 100 µM.

As to `O=C1c2ccccc2/C(=N\c2ccc3ccccc3c2)C1(C1=C(c2ccccc2)/C(=N/c2ccc3ccccc3c2)c2ccccc21)c1ccccc1` (centres undefined), the GI50 is inactive: 25.4 µM.

As to `c1ccc2c3nnc(c2c1)SCCSCCCSCCS3`, the GI50 was inactive: > 100 µM.

In the case of `CCOC(=N)CC(=O)Nc1ccc(Cl)cc1`, the GI50 was inactive: > 100 µM.

In the case of `COc1ccc(-c2nc(Nc3ccccc3)sc2Cc2sc(Nc3ccccc3)nc2-c2ccc(OC)cc2)cc1`, the GI50 is inactive: > 100 µM.

For the compound `COC(=O)[C@@H]1[C@H]2CC[C@]3(C)[C@@H](OC(C)=O)CC[C@H]3[C@@H]2CC[C@H]1C1(C)SCCS1`, the GI50 was inactive: 43.3 µM.

With `NCCCNCCSSCc1ccccc1CSSCCNCCCN`, the GI50 is inactive: > 100 µM.

Consider `O=C1C(Cl)=C(N2C(=O)CCCC2=O)C(=O)c2ccccc21`, for which the GI50 was inactive: > 100 µM.

With `COc1ccc2c(c1)C(=O)c1ccccc1C2`, the GI50 was inactive: 88.3 µM.

Turning to `CC1CC(=O)N(N(C)C)C2(C#N)C(=O)N=C(N)C12C#N` (centres undefined), the GI50 was inactive: > 100 µM.

Regarding `Cc1nc2sc(CCl)nn2c(=O)c1Cl`, the GI50 was inactive: 16.9 µM.

With `C/C=C1\CN2CCc3c([nH]c4ccccc34)C2CC1CCO` (centres undefined), the GI50 is inactive: > 100 µM.

Take `C[C@]12CCC(=O)C(O)=C1CC[C@@H]1C2CC[C@]2(C)Nc3c(cnn3-c3ccccc3)CC12` (some centres undefined): the GI50 is inactive: 59.8 µM.

Consider `CCC1CC2C(=O)N(c3ccccc3)C(=O)C2c2[nH]c3ccccc3c21` (centres undefined), for which the GI50 was inactive: 38.5 µM.

Regarding `COc1cc2cc[n+](C)c(Cc3ccccc3)c2cc1OC`, the GI50 was inactive: > 100 µM.

Take `O=C1OCC2(CO1)CC1C=CC2C1` (centres undefined): the GI50 is inactive: > 100 µM.

Take `CCOC(=O)NN(C(=O)OCC)C(C(=O)c1ccccc1)N(NC(=O)OCC)C(=O)OCC`: the GI50 was inactive: > 100 µM.

For the compound `C=C(Nc1ccc(OC)cc1OC)C(=O)Cc1cccc[n+]1[O-]`, the GI50 is inactive: > 100 µM.

On to `CC(=O)OC/C=C/[C@H](O[Si](C)(C)C(C)(C)C)[C@@H](O)/C=C/COC(C)=O`, for which the GI50 was inactive: > 100 µM.

Take `O=C(O)COc1cc(-c2ccccc2)nc2cc(F)ccc12`: the GI50 is inactive: > 100 µM.

On to `O=C1NC(=S)N/C1=C/c1c(-c2ccccc2)[nH]c2ccccc12`, for which the GI50 was inactive: 17.2 µM.

Consider `CCOC(=O)c1cn(-c2ccccc2)c(=S)n2c1nc1ccccc12`, for which the GI50 is inactive: > 65.8 µM.

On to `CCN1C[C@]2(COC)[C@H](O)C[C@H](OC)[C@]34C1[C@H]([C@H](OC)[C@H]23)[C@]1(OC(C)=O)[C@H]2[C@@H](OC(=O)c3ccccc3)[C@](O)(C[C@H]24)[C@@H](OC)[C@@H]1O`, for which the GI50 was inactive: > 100 µM.

As to `COC(=O)C(Cl)=C1CC1`, the GI50 is inactive: > 100 µM.

With `S=C1NC2=C(COc3ccccc32)C(c2ccc(Cl)cc2)N1` (centres undefined), the GI50 is inactive: 16.4 µM.

On to `Cc1ccc(S(=O)(=O)N/N=C/c2oc(-c3ccccc3Cl)c(-c3ccccc3Cl)c2[N+](=O)[O-])cc1`, for which the GI50 is inactive: 62.2 µM.

On to `CC1C2=C(CCCC2=O)N(c2ccc(Cl)cc2)C2=C1C(=O)CCC2`, for which the GI50 is inactive: 79.8 µM.

In the case of `C=CCC1(CN(C)C)CC/C(=C\c2cc(OC)c(OC)c(OC)c2)C1=O` (centres undefined), the GI50 is inactive: 32.2 µM.

On to `CNNC(=NS(=O)(=O)c1cc(C#N)c(NNC)cc1S)NNC`, for which the GI50 is inactive: > 10 µM.

As to `Oc1nc2c(c(-c3ccc(F)cc3)n1)COC/C2=C\c1ccc(F)cc1`, the GI50 was inactive: > 100 µM.

With `CCOC(C)O[C@H]1C(=O)OCC1(C)C` (some centres undefined), the GI50 is inactive: > 100 µM.

Take `CC1(C)CCC[C@@]2(C)C1CC[C@@]1(CO1)[C@@H]2/C=C\C(C=O)CC=O` (some centres undefined): the GI50 was inactive: > 100 µM.

With `C=C(C)C1CC2(C)C(C)CC(OC(=O)/C(C)=C\C)CC2C(OC(=O)/C(C)=C\C)C1O` (centres undefined), the GI50 is inactive: > 100 µM.

With `CC(=O)NC1COC(COC(=O)CCCCCCCCCCNC(=O)c2ccc([N+](=O)[O-])c3c(=O)c4ccccc4[nH]c23)C(O)C1OC(C)C(=O)NC(C(=O)NC(CCC(N)=O)C(=O)OCc1ccccc1)C(C)C` (centres undefined), the GI50 was inactive: 11.5 µM.

Turning to `COc1ccc2c(c1OC)C(=O)N/C2=C\c1c(CCN(C)C)cc2c(c1OC)OCO2`, the GI50 was inactive: > 100 µM.

For the compound `O=C(Nc1cccc([N+](=O)[O-])c1)C(=O)C(C(=O)c1ccccc1-c1ccccc1)C1OC(=O)c2ccccc21` (centres undefined), the GI50 was inactive: 21.2 µM.

In the case of `CC(C)(C)NC(=O)CCC1C(C(=O)NC(C)(C)C)C2(Cl)C(Cl)=C(Cl)C1(Cl)C2(Cl)Cl` (centres undefined), the GI50 was inactive: 38.9 µM.

Regarding `CC(C)(C)[Si](C)(C)OCC1OC(n2cnc3c(=O)[nH]c(N)nc32)C(O[Si](C)(C)C(C)(C)C)C1O[Si](C)(C)C(C)(C)C` (centres undefined), the GI50 is inactive: 3.64 µM.

As to `COc1ccc(CCN2CCN(CCCc3ccccc3)CC2)cc1`, the GI50 was inactive: > 100 µM.

With `CC(=O)OC[C@@]12C[C@H]3C(=O)C(C)(C)C[C@H]3[C@]1(C)[C@@H](OC(C)=O)[C@]1(O)[C@H]([C@@H](OC(=O)c3ccccc3)[C@@H](C)[C@H]1OC(C)=O)[C@H]2OC(C)=O`, the GI50 was inactive: > 20 µM.

For `Cc1ccsc1/C=N/NC1=NCCN1`, the GI50 was inactive: > 100 µM.

With `COc1ccc(C)cc1-c1cc(Sc2ccccc2)c(-c2cc(C)ccc2OC)o1`, the GI50 is inactive: > 31.6 µM.

Regarding `C[C@H]1CC[P+](Cc2ccccc2)(c2ccccc2)C1` (some centres undefined), the GI50 was inactive: > 100 µM.

Turning to `CC1=NN(C(=O)Cc2ccccc2)C(=O)/C1=C\c1cccc(O)c1`, the GI50 is inactive: > 100 µM.

With `Cc1ccc(S(=O)(=O)NC(=O)NCC(N)=O)cc1`, the GI50 is inactive: > 100 µM.

Regarding `COc1cc2c(cc1OCCCCCCCCN1C(=O)c3cccc4cccc(c34)C1=O)N=C[C@@H]1CCCN1C2=O`, the GI50 is inactive: 22.1 µM.

With `CC(Br)CN1CCOCC1` (centres undefined), the GI50 was inactive: > 100 µM.

In the case of `CN1CCN(C(=S)N(C)C(=O)c2cccs2)CC1`, the GI50 was inactive: > 100 µM.

As to `CC(O)/C=C/C(CCC(C)CO)C(C)C` (centres undefined), the GI50 was inactive: > 100 µM.

`Cc1ccc2c(=O)cc(Cc3csc4ccccc34)[nH]c2n1`: the GI50 was inactive: 57.3 µM.

Take `Cc1ccc(/C=C/C(=O)c2ccc([N+](=O)[O-])cc2)cc1`: the GI50 is inactive: > 100 µM.

As to `COc1ccccc1OCC(COC(=O)Nc1ccccc1)OC(=O)Nc1ccccc1` (centres undefined), the GI50 was inactive: > 100 µM.

As for `CN(/N=C\c1ccnc2ccccc12)c1ccc([N+](=O)[O-])cc1`, the GI50 is inactive: > 100 µM.

As to `COc1cc2c3c(cc(Cl)nc3c1OC)C(=O)C(=O)N2`, the GI50 was inactive: 17.7 µM.

With `Cc1ccc2c(c1)C1(C)OC(CC(N)C1O)O2` (centres undefined), the GI50 is inactive: > 100 µM.

As for `Cc1ccc(S(=O)(=O)N/N=C(/c2nc3ccc([N+](=O)[O-])cc3nc2O)C(O)c2ccc(C(O)/C(=N\NS(=O)(=O)c3ccc(C)cc3)c3nc4ccc([N+](=O)[O-])cc4nc3O)cc2)cc1` (centres undefined), the GI50 was inactive: 58.6 µM.

In the case of `CC(=O)OC1CC2(C)C(OC(C)=O)CC1C2(C)C` (centres undefined), the GI50 is inactive: > 100 µM.

With `COC(=O)C1=C(C)N(NC(=O)c2ccccc2)C2(O)CCCC(=O)C12C` (centres undefined), the GI50 was inactive: > 100 µM.

Regarding `N#Cc1c(-c2ccc([N+](=O)[O-])cc2)c(C#N)c(=O)n(NS(=O)(=O)c2ccccc2)c1-c1ccccc1`, the GI50 is inactive: > 100 µM.

Consider `O=C(O)CSc1nnc(-c2ccccc2O)[nH]1`, for which the GI50 was inactive: > 100 µM.

As to `CC(C)=CCNc1ncnc2c1ncn2CCC(=O)O`, the GI50 is inactive: > 100 µM.

On to `CC1=CC(C)C/C=C/C2C3OC3(C)C(C)C3C(Cc4c[nH]c5ccccc45)NC(=O)C23C(=O)C=CC(=O)C1O` (centres undefined), for which the GI50 was inactive: 15 µM.

Regarding `O=P1(c2ccccc2)C2=CCC=CC2C(c2ccccc2)N1Cc1ccccc1` (centres undefined), the GI50 was inactive: 17.6 µM.

As to `CCOC(=O)C(Cl)(NC(=O)c1ccc(F)cc1)C(F)(F)F` (centres undefined), the GI50 is inactive: > 100 µM.

Consider `Cc1ccc2nc(NC(=O)/C(=N\NC(=S)NN)C3C(=O)NC(=S)NC3=O)sc2c1`, for which the GI50 is inactive: > 100 µM.

For the compound `O=C(O)c1cccc(OCCOc2cccc(C(=O)O)c2[N+](=O)[O-])c1[N+](=O)[O-]`, the GI50 was inactive: > 100 µM.

Regarding `CCCCCCCCCCCC(=O)OCC(C[As](=O)(O)O)OC(=O)CCCCCCCCCCC` (centres undefined), the GI50 was inactive: 18.5 µM.

Turning to `Cc1cc2oc(-c3ccccc3)c(C)c(=O)c2c2c1OC(C)(C)S2`, the GI50 is inactive: > 100 µM.

As to `CC(=O)c1ccc(NC(=O)/C(=N\NC(N)=O)C(C#N)CC(C)(C)C=O)cc1` (centres undefined), the GI50 is inactive: > 100 µM.

As for `COc1ccc(C2ON(c3ccccc3)CC=C2C)cc1` (centres undefined), the GI50 is inactive: > 100 µM.

With `C[n+]1c2ccccc2cc2c(CNC(CCCNC(=N)N)C(=O)O)cccc21` (centres undefined), the GI50 is inactive: 5.14 µM.

Regarding `C#CCn1ncc2c(SCc3ccccc3)ncnc21`, the GI50 is inactive: > 100 µM.
